# The other results are listed elsewhere or left out.
# B1: Gal 3 (Homo sapiens), P17931 (protein)
# chain: MADNFSLHDALSGSGNPNPQGWPGAWGNQPAGAGGYPGASYPGAYPGQAPPGAYPGQAPPGAYHGAPGAYPGAPAPGVYPGPPSGPGAYPSSGQPSAPGAYPATGPYGAPAGPLIVPYNLPLPGGVVPRMLITILGTVKPNANSILDFQRGNDVAFHFNPRFNENNRRVIVCNTKLDNNWGREERQSVFPFESGKPFKIQVLVEPDHFKVAVNDAHLLQYNHRVKKLNEISKLGISGDIDLTSASYTMI
# How the values were obtained:
# Experiment in all cases: glycan array binding signal (z-score within array); higher = stronger binding
# Conditions in all cases: glycan notation: IUPAC condensed, linker removed; mutation: R144S
# [1] = target: Gal(b1-4)GlcNAc(b1-3)Gal(b1-4)[Fuc(a1-3)]GlcNAc(b1-3)Gal(b1-4)[Fuc(a1-3)]GlcNAc
# In short: (§1)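 The Consortium for Functional Glycomics database supplied 3228 glycan arrays, of which those lacking an available protein sequence were dropped. The binding signal, a within-array Z-score, was averaged across arrays of the same protein sequence and across linkers. Negative scores can be read as non-binding.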
# [2] = target: Gal(b1-4)GlcNAc(b1-3)GalNAc
# In short: as §1
# [3] = target: Gal(b1-4)GlcNAc(b1-3)[Gal(b1-4)GlcNAc(b1-6)]Gal(b1-4)GlcNAc
# In short: as §1
# [4] = target: Gal(b1-4)GlcNAc(b1-3)[Gal(b1-4)GlcNAc(b1-6)]GalNAc
# In short: as §1
# [5] = target: Gal(b1-4)GlcNAc(b1-3)[GlcNAc(b1-6)]Gal(b1-4)GlcNAc
# In short: as §1
# [6] = target: Gal(b1-4)GlcNAc(b1-6)Gal(b1-4)GlcNAc
# In short: as §1
# [7] = target: Gal(b1-4)GlcNAc(b1-6)GalNAc
# In short: as §1
# [8] = target: Gal(b1-4)GlcNAc(b1-6)[Gal(b1-3)]GalNAc
# In short: as §1
# Gal3S(b1-3)GalNAc = target: Gal3S(b1-3)GalNAc
# In short: as §1
# Gal3S(b1-3)GlcNAc = target: Gal3S(b1-3)GlcNAc
# In short: as §1
# [9] = target: Gal3S(b1-3)[Fuc(a1-4)]GlcNAc
# In short: as §1
# Gal3S(b1-4)Glc = target: Gal3S(b1-4)Glc
# In short: as §1
# Gal3S(b1-4)Glc6S = target: Gal3S(b1-4)Glc6S
# In short: as §1
# Gal3S(b1-4)GlcNAc = target: Gal3S(b1-4)GlcNAc
# In short: as §1
# Gal3S(b1-4)GlcNAc6S = target: Gal3S(b1-4)GlcNAc6S
# In short: as §1
# [10] = target: Gal3S(b1-4)[Fuc(a1-3)]Glc
# In short: as §1
# [11] = target: Gal3S(b1-4)[Fuc(a1-3)]Glc6S
# In short: as §1
# Gal3S4S(b1-4)GlcNAc = target: Gal3S4S(b1-4)GlcNAc
# In short: as §1
# Gal3S6S(b1-4)GlcNAc = target: Gal3S6S(b1-4)GlcNAc
# In short: as §1
# Gal3S6S(b1-4)GlcNAc6S = target: Gal3S6S(b1-4)GlcNAc6S
# In short: as §1
# Gal4S(b1-4)GlcNAc = target: Gal4S(b1-4)GlcNAc
# In short: as §1
# Gal4S6S(b1-4)GlcNAc = target: Gal4S6S(b1-4)GlcNAc
# In short: as §1
# Gal6S(b1-4)Glc = target: Gal6S(b1-4)Glc
# In short: as §1
# Gal6S(b1-4)Glc6S = target: Gal6S(b1-4)Glc6S
# In short: as §1
# Gal6S(b1-4)GlcNAc = target: Gal6S(b1-4)GlcNAc
# In short: as §1
# Gal6S(b1-4)GlcNAc6S = target: Gal6S(b1-4)GlcNAc6S
# In short: as §1
# GalNAc(a1-3)Gal = target: GalNAc(a1-3)Gal
# In short: as §1
# GalNAc(a1-3)GalNAc = target: GalNAc(a1-3)GalNAc
# In short: as §1
# [12] = target: GalNAc(a1-3)GalNAc(a1-3)Gal(a1-4)Gal(b1-4)GlcNAc
# In short: as §1
# GalNAc(b1-3)Gal = target: GalNAc(b1-3)Gal
# In short: as §1
# [13] = target: GalNAc(b1-3)Gal(a1-4)Gal(b1-4)GlcNAc
# In short: as §1
# [14] = target: GalNAc(b1-3)Gal(a1-4)Gal(b1-4)GlcNAc(b1-3)Gal(b1-4)Glc
# In short: as §1
# [15] = target: GalNAc(b1-3)Gal(a1-6)Gal(b1-4)Glc
# In short: as §1
# GalNAc(b1-3)GalNAc = target: GalNAc(b1-3)GalNAc
# In short: as §1
# GalNAc(b1-4)GlcNAc = target: GalNAc(b1-4)GlcNAc
# In short: as §1
# [16] = target: GalNAc(b1-4)GlcNAc(b1-2)Man(a1-3)[GalNAc(b1-4)GlcNAc(b1-2)Man(a1-6)]Man(b1-4)GlcNAc(b1-4)GlcNAc
# In short: as §1
# Glc(a1-4)Glc = target: Glc(a1-4)Glc
# In short: as §1
# Glc(a1-6)Glc(a1-6)Glc = target: Glc(a1-6)Glc(a1-6)Glc
# In short: as §1
# Glc(b1-4)Glc = target: Glc(b1-4)Glc
# In short: as §1
# Glc(b1-6)Glc = target: Glc(b1-6)Glc
# In short: as §1
# GlcA(b1-3)Gal = target: GlcA(b1-3)Gal
# In short: as §1
# GlcA(b1-3)GlcNAc = target: GlcA(b1-3)GlcNAc
# In short: as §1
# GlcA(b1-6)Gal = target: GlcA(b1-6)Gal
# In short: as §1
# [17] = target: GlcNAc(a1-3)Gal(b1-4)GlcNAc
# In short: as §1
# [18] = target: GlcNAc(a1-4)Gal(b1-3)GlcNAc
# In short: as §1
binder,measurement,setting,value
B1,glycan array binding signal (z-score),[1],0.336
same,glycan array binding signal (z-score),[2],-0.147
same,glycan array binding signal (z-score),[3],1.2
same,glycan array binding signal (z-score),[4],0.792
same,glycan array binding signal (z-score),[5],1.43
same,glycan array binding signal (z-score),[6],-0.305
same,glycan array binding signal (z-score),[7],-0.34
same,glycan array binding signal (z-score),[8],-0.323
same,glycan array binding signal (z-score),Gal3S(b1-3)GalNAc,-0.346
same,glycan array binding signal (z-score),Gal3S(b1-3)GlcNAc,-0.354
same,glycan array binding signal (z-score),[9],-0.363
same,glycan array binding signal (z-score),Gal3S(b1-4)Glc,-0.361
same,glycan array binding signal (z-score),Gal3S(b1-4)Glc6S,-0.339
same,glycan array binding signal (z-score),Gal3S(b1-4)GlcNAc,-0.359
same,glycan array binding signal (z-score),Gal3S(b1-4)GlcNAc6S,-0.288
same,glycan array binding signal (z-score),[10],-0.358
same,glycan array binding signal (z-score),[11],-0.359
same,glycan array binding signal (z-score),Gal3S4S(b1-4)GlcNAc,-0.361
same,glycan array binding signal (z-score),Gal3S6S(b1-4)GlcNAc,-0.358
same,glycan array binding signal (z-score),Gal3S6S(b1-4)GlcNAc6S,-0.361
same,glycan array binding signal (z-score),Gal4S(b1-4)GlcNAc,-0.344
same,glycan array binding signal (z-score),Gal4S6S(b1-4)GlcNAc,-0.364
same,glycan array binding signal (z-score),Gal6S(b1-4)Glc,-0.345
same,glycan array binding signal (z-score),Gal6S(b1-4)Glc6S,-0.357
same,glycan array binding signal (z-score),Gal6S(b1-4)GlcNAc,-0.309
same,glycan array binding signal (z-score),Gal6S(b1-4)GlcNAc6S,-0.364
same,glycan array binding signal (z-score),GalNAc(a1-3)Gal,-0.354
same,glycan array binding signal (z-score),GalNAc(a1-3)GalNAc,-0.352
same,glycan array binding signal (z-score),[12],0.333
same,glycan array binding signal (z-score),GalNAc(b1-3)Gal,-0.358
same,glycan array binding signal (z-score),[13],-0.355
same,glycan array binding signal (z-score),[14],0.182
same,glycan array binding signal (z-score),[15],-0.358
same,glycan array binding signal (z-score),GalNAc(b1-3)GalNAc,-0.354
same,glycan array binding signal (z-score),GalNAc(b1-4)GlcNAc,-0.344
same,glycan array binding signal (z-score),[16],-0.353
same,glycan array binding signal (z-score),Glc(a1-4)Glc,-0.361
same,glycan array binding signal (z-score),Glc(a1-6)Glc(a1-6)Glc,-0.357
same,glycan array binding signal (z-score),Glc(b1-4)Glc,-0.357
same,glycan array binding signal (z-score),Glc(b1-6)Glc,-0.357
same,glycan array binding signal (z-score),GlcA(b1-3)Gal,-0.359
same,glycan array binding signal (z-score),GlcA(b1-3)GlcNAc,-0.36
same,glycan array binding signal (z-score),GlcA(b1-6)Gal,-0.359
same,glycan array binding signal (z-score),[17],-0.358
same,glycan array binding signal (z-score),[18],-0.356
